Assay results from PubChem BioAssay AID1745853 (National Center for Advancing Translational Sciences (NCATS), 2022).
Values joined by “and” are separate entries in the source; they are usually repeats but may differ in a detail not shown here. Equal entries are not always repeated. The list shows a part of the results. The main result of the screen is listed elsewhere. These columns were measured beside it and carry no call.

Tests used:
Experiment in all cases: Primary Screen for Target Class Profiling of Small Molecule Inhibitors of Methyltransferases
[1] = target: Glycine N-methyltransferase (Homo sapiens) (UniProt Q14749); conditions: purified enzyme, MTase-Glo SAH luminescence; measured here: GNMT inhibition; at 40 µM; stronger effect = lower value
Text: (§1) PI: Matthew D. Hall Ph.D. and Quinlin M. Hanson Ph.D.
(§2) National Center for Advancing Translational Sciences (NCATS)
(§3) National Institute of Health (NIH), Rockville, MD
(§4) Target class profiling (TCP) is a chemical biology approach amenable to investigating understudied biological targets. TCP is achieved by developing a generalizable assay platform and applying it to screen a curated set of compound libraries against representative members of a target class. Small molecule methyltransferases (SMMTase) are a subclass of methyltransferase that act on metabolites to modulate signaling pathways, metabolize xenobiotics, or balance the available methyl pool. We screened four curated libraries totaling 27,574 unique compounds against the SMMTases nicotinamide N-methyltransferase (NNMT), phenylethanolamine N-methyltransferase (PNMT), histamine N-methyltransferase (HNMT), glycine N-methyltransferase (GNMT), catechol O-methyltransferase (COMT), and guanidinoacetate N-methyltransferase (GAMT). The data generated by this TCP can be leveraged for informed tool molecule development. For example, in the associated publication we identified a chemotype of HNMT-selective inhibitors. Additionally, we identified a putative SMMTase-selective inhibitor with potential as a tool molecule for studying broader methyltransferase biology.
(§5) High-through put screening assays were developed at the National Center for Advancing Translational Science (NCATS) for the enzymes NNMT, PNMT, HNMT, GNMT, COMT, and GAMT. Enzymatic activity was measured as a function of SAM cofactor conversion using the MTase Glo kit (Promega) for all enzymes. All assays were performed in 1536-well format with substrates and SAM concentrations at KM values. Enzyme concentration and assay timing were optimized for 10-20% SAM conversion. Initial screening of 27,574 compounds was done as single-point assays using the highest compound concentration (40 uM). […] These compounds were replated in 11-point dose response and assayed against NNMT, PNMT, HNMT, GNMT, COMT, GAMT, and a counter-assay. The IC50 and efficacy (maximal response) values were determined for each dose-response curve. These values are also accounted for in the area under the curve (AUC) values.
(§6) PROTOCOL TABLE (as described by Inglese J, Shamu CE and Guy RK. 2007)
(§7) SEQUENCE No. (e.g., 1, 2, 3, etc.); […] (e.g., Cells, Incubation, Reagent, etc.); VALUE; DESCRIPTION.
(§8) 1; Reagent; 2 uL; SMMTase Enzyme (2x) in reaction buffer, columns 1- 48.
(§9) 2; Reagent; 1 uL; SAM (4x) in reaction buffer, columns 1-48.
(§10) 3; Controls; 23 nL; DMSO in column 4; sinefungin in DMSO (0 uM - 40 uM) in 7-point 1:2 dilution series (n = 2) in column 2.
(§11) 4; Compounds; 23 nL; Columns 5-48.
(§12) 5; Reagent; 1 uL; Substrate (4x) in reaction buffer, columns 2-48.
(§13) 6; Time; 20-30 min; Incubation.
(§14) 7; Reagent; 1 uL; MTase-Glo reagent (5X), columns 1-48.
(§15) 8; Time; 30 min; Incubation.
(§16) 9; Reagent; 5 uL; MTase-Glo Detection reagent, columns 1-48.
(§17) 10; Time; 30 min; Incubation, luminescence evolution.
(§18) 11; Detection; Luminescence; ViewLux uHTS Microplate Imager (PerkinElmer).
(§19) NOTES (numbers refer to Sequence numbers above)
(§20) 1, 2, 5. White Medium Binding Greiner 1536-well plates (Cat #789175-F, Greiner Bio-One, Monroe, NC); Reaction buffer: 50 mM Tris, pH 8.0, 3 mM MgCl2, 1 mM EDTA, 50 mM NaCl, 1 mM DTT, and 0.1 mg/mL BSA. Evaporation was prevented by covering assay plates with metal lids containing holes to allow gas diffusion.
(§21) 1. Six SMMTase were profiled: HNMT, GNMT, PNMT, COMT, NNMT, GAMT
(§22) 5. The corresponding substrate was used for each enzyme: HNMT - 5.3 uM Histamine; GNMT - >500 uM Glycine; PNMT - 16.2 uM Norephinephrine; COMT - 13.7 uM Norephinephrine; NNMT - 3.8 uM Nicotinamide; GAMT - 2.5 uM Guanidinoacetate.6, 8, 10. Room temperature
(§23) 6. Final reaction conditions: 10 nM COMT, 5 uM SAM, 15 uM norepinephrine, 50 mM Tris, pH 8.0, 3 mM MgCl2, 1 mM EDTA, 50 mM NaCl, 1 mM DTT, and 0.1 mg/mL BSA; refer to tables 2 and S1 for specific timing.
8. […]

[2] = target: Guanidinoacetate N-methyltransferase (Homo sapiens) (UniProt Q14353); conditions: purified enzyme, MTase-Glo SAH luminescence; measured here: GAMT inhibition; at 40 µM; stronger effect = lower value
Text: as §1, §2, §3, §4, §5, §6, §7, §8, §9, §10, §11, §12, §13, §14, §15, §16, §17, §18, §19, §20, §21, §22, §23
8. […]

[3] = target: Histamine N-methyltransferase (Homo sapiens) (UniProt P50135); conditions: purified enzyme, MTase-Glo SAH luminescence; measured here: HNMT inhibition; at 40 µM; stronger effect = lower value
Text: as §1, §2, §3, §4, §5, §6, §7, §8, §9, §10, §11, §12, §13, §14, §15, §16, §17, §18, §19, §20, §21, §22, §23
8. […]

[4] = target: Nicotinamide N-methyltransferase (Homo sapiens) (UniProt P40261); conditions: purified enzyme, MTase-Glo SAH luminescence; measured here: NNMT inhibition; at 40 µM; stronger effect = lower value
Text: as §1, §2, §3, §4, §5, §6, §7, §8, §9, §10, §11, §12, §13, §14, §15, §16, §17, §18, §19, §20, §21, §22, §23
8. […]

[5] = target: Phenylethanolamine N-methyltransferase (Homo sapiens) (UniProt P11086); conditions: purified enzyme, MTase-Glo SAH luminescence; measured here: PNMT inhibition; at 40 µM; stronger effect = lower value
Text: as §1, §2, §3, §4, §5, §6, §7, §8, §9, §10, §11, §12, §13, §14, §15, §16, §17, §18, §19, §20, §21, §22, §23
8. […]
% is set by controls: 0 for no effect and ±100 for the full control effect.

| SMILES | activity change, negative = inhibition [1] | activity change, negative = inhibition [2] | activity change, negative = inhibition [3] | activity change, negative = inhibition [4] | activity change, negative = inhibition [5] |
| --- | --- | --- | --- | --- | --- |
| CC(C)OCCCn1c(=O)c2cc(Cl)ccc2n2c(SCc3cccc(Cl)c3)nnc12 | -2.33% | 0% | 5.26% | -6.23% | 1.99% |
| COc1ccc(CNC(=O)CCCc2nnc3n4nc(-c5ccccc5)nc4c4ccccc4n23)cc1 | -10.3% | 0% | 2.64% | 6.18% | -1.08% |
| Cc1ccc(Cn2nc3n(C(C)C)c(=O)c4ccc(C(=O)NC5CCCC5)cc4n3c2=O)cc1 | 2.31% | 4.32% | -0.176% | 3.06% | 3.11% |
| O=S(=O)(Nc1cccnc1)c1ccc(Cl)c(-c2nnc(-c3ccccc3)o2)c1 | -1.2% | 2.04% | 13.5% | 5.52% | 7.5% |
| C/C=C(\C)C(=O)O[C@H]1C=CC(=O)O[C@H]1/C=C/[C@H](O)[C@@H](C)O | 0.207% | 5.89% | 12.1% | -5.16% | 2.04% |
| C=CC(C)=C[C@@]1(C)SC(=O)C(C)=C1O | 0.538% | 13.2% | 7.24% | 0.273% | 7.26% |
| CC(=O)Nc1ccc(NC(=S)NC(=O)c2ccc(C(C)(C)C)cc2)cc1 | 7.12% | 11.8% and 2.01% | 8.09% | -7.03% and -11.8% | 6.84% and 7.42% |
| CCOc1cc(C(=O)N2CCC(N3CCN(C)CC3)CC2)ccc1Nc1ncc2c(n1)N(C1CCCC1)c1ccccc1C(=O)N2C | -4.4% | 13.1% | -18.3% | -25.1% | 3.31% |
| N#Cc1c(C2CCNCC2)cc(-c2c(O)cccc2OCC2CC2)nc1N | -11.6% | -1.32% | -12.6% | -69.2% | -7.72% |
| CCCCN1C(=O)c2cc(C(=O)Nc3ccc(OCC)cc3)nn2CC1(C)C(=O)NC1CCCC1 (stereo not given) | 3% | 4.07% | -16.4% | 4.08% | 2.06% |
| O=c1cc(-c2ccc(O)c(O)c2)oc2cc(O)cc(O)c12 | -18.7% | 0% | 5.65% | -7.84% | -15.8% |
| CCc1ccccc1Nc1nn2c(=O)c3ccc(C(=O)NCCCOC(C)C)cc3nc2s1 | 3.21% | 0.854% | 4.15% | -4.85% | -0.799% |
| Cc1cc2[nH]c(=O)[nH]c2cc1S(=O)(=O)NCc1ccc(F)cc1 | -1.33% | 3.27% | -9.05% | -9.81% | -10.1% |
| Fc1cccc(-c2nnn3c2nc(NCCc2ccccc2)c2ccccc23)c1 | 0.761% | 3.76% | -78.6% | 3.74% | -6.02% |
| CCCCN1C(=O)c2cc(C(=O)Nc3ccccc3CC)nn2CC1(C)C(=O)NC1CCCC1 (stereo not given) | -0.134% | 3.21% | -3.53% | -1.78% | -0.128% |
| COc1cccc([S+](=O)([O-])N2CCn3cc(C(=O)NCc4ccc(Cl)nc4)nc3C2)c1 | -13% | -7.22% | -1.93% | -13% | -11.6% |
| COc1ccccc1CC(=O)N1CCN(c2cc(-c3cccs3)[nH]n2)CC1 | -5.89% | -8.38% | -3.06% | -10.6% | -8.46% |
| COc1ccc(-c2cc3n(n2)CC(C)(C(=O)NCc2ccccc2OC)N(c2ccc(C)cc2C)C3=O)cc1 (stereo not given) | 2.72% | 1.5% | 3.6% | -5.61% | -3.38% |
| CC(C)(CC(=O)N1CCCC1)NCC(=O)N1C[C@@H](F)C[C@H]1C#N | 7.13% | 8.04% | 5.82% | -7.18% | 2.96% |
